Results taken from the supplement of paper PMC4166925.
± gives the standard deviation of the averaged measurements. In all, about 33,000 sequences were measured (“E-score (dimensionless, -0.5 to 0.5)”: median about -0.046, highest 2% from about 0.36 on). The list shows a part of the results.

system: T1, SpTbr T-box DNA-binding domain (GST fusion); assay: PBM E-score of 8-mer (E-score (dimensionless, -0.5 to 0.5)); Tbr is Tbrain of the sea star Patiria miniata (Pm) or the sea urchin Strongylocentrotus purpuratus (Sp); higher = stronger binding preference; most listed sequences are background and not binding sites; settings: the construct has about 5 more residues each side
T1 sequence: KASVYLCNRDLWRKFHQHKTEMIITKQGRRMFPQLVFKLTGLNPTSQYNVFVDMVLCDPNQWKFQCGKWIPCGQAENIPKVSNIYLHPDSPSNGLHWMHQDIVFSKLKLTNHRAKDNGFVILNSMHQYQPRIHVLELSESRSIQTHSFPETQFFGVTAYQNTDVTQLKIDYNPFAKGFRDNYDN
Summary of the method: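 Primer extension turned Universal Agilent oligonucleotide arrays double-stranded. They were incubated with 200 nM protein in PBS (pH 7.5); the protein was a GST-fused Tbr T-box DNA-binding domain expressed in BL21 E. coli at 20 °C and purified on glutathione. Every ungapped 8-mer was scored from the scanned, quantified probe intensities, and the Universal PBM Analysis Suite gave each an enrichment E-score averaged over duplicate arrays.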

Sequence	PBM E-score of 8-mer
CCAAAAGG	0.0721 ± 0.04
GTTGATCA	0.098 ± 0.0032
GAATAGAC	-0.129 ± 0.024
GTGGGTGA	0.194 ± 0.055
ACTGATGA	-0.0845 ± 0.0026
GAAACCGA	-0.00447 ± 0.019
CCTCAATC	-0.0759 ± 0.033
ACATAATA	-0.0636 ± 0.09
AATCTAGG	-0.293 ± 0.041
ACAGTGTG	0.338 ± 0.011
AGCGTGTA	0.0705 ± 0.048
CAAAAGCG	0.122 ± 0.06
GGAATTCA	-0.127 ± 0.1
ACAAAACT	0.0767 ± 0.031
CACGGGGG	-0.267 ± 0.033
TGACCTCA	0.0321 ± 0.076
CTTGGCAA	0.0153 ± 0.084
CAATGCTG	-0.0295 ± 0.024
GGAGTACA	-0.0355 ± 0.072
CAGATCTG	0.138 ± 0.044
AATTAAGT	-0.0956 ± 0.033
CGACAAAC	0.176 ± 0.0053
AATTCAGA	-0.178 ± 0.025
CGTCGTAC	-0.0278 ± 0.053
ACTGGAGC	-0.242 ± 0.028

Sequence	PBM E-score of 8-mer
GGCACGAA	0.0053 ± 0.037
AGCTGTCA	0.382 ± 0.022
AACGGCTC	0.206 ± 0.026
CGCCTTAG	0.29 ± 0.047
CTCCACTC	-0.0183 ± 0.018
AACGCCCA	0.195 ± 0.017
CAGAAACC	-0.106 ± 0.08
CACAGGGA	-0.077 ± 0.044
CGTTCGGA	-0.0228 ± 0.00031
CGTGCGTC	-0.00572 ± 0.046
CATTCACC	-0.0478 ± 0.011
CAAGGCTG	-0.0345 ± 0.053
GGCAGTCA	-0.102 ± 0.069
AACGTACA	-0.0208 ± 0.045
GGTAACTA	-0.261 ± 0.038
CGGCCGGC	-0.0637 ± 0.07
CAGGAAAG	0.1 ± 0.0096
CCTAAAAG	-0.119 ± 0.0035
ACGCGTGA	0.407 ± 0.0058
ACTGTGGC	0.0746 ± 0.026
CCTAGCCC	-0.146 ± 0.034
AAAGATGT	0.0899 ± 0.052
GAGGAGCC	-0.146 ± 0.02
CGTTGATC	-0.0521 ± 0.00074
CACAGGCA	-0.0816 ± 0.1

Sequence	PBM E-score of 8-mer
AACGGAGA	-0.152 ± 0.031
ATATCGCG	0.281 ± 0.053
CAATCTAA	-0.201 ± 0.013
AGTGTATA	-0.101 ± 0.014
GAGTTCGC	0.201 ± 0.0041
ACTCCAGG	-0.0824 ± 0.008
GCTAGTAA	-0.149 ± 0.015
CGCGTGAG	0.313 ± 0.0063
AGCGAGCT	0.0167 ± 0.06
AGGTTCAC	0.231 ± 0.04
AAACTACT	0.147 ± 0.026
GACCGGTA	-0.126 ± 0.0038
AATTCCGC	-0.0532 ± 0.035
AAAAGCAT	-0.204 ± 0.0045
ATGACCAC	0.0339 ± 0.001
GATTCAAC	-0.0664 ± 0.011
GTGCGGAA	0.309 ± 0.013
GGACCATA	-0.116 ± 0.02
AGGGACAC	0.117 ± 0.036
GGGGCTTA	-0.188 ± 0.007
CAGTCTGC	-0.212 ± 0.091
AAACACCG	0.155 ± 0.0066
ACGATAGC	0.0829 ± 0.032
AGCGACGC	0.135 ± 0.053
ACTTTAGA	-0.0684 ± 0.056

Sequence	PBM E-score of 8-mer
ACTTCACG	0.312 ± 0.018
ACGCATTC	0.0158 ± 0.03
CACAGATA	-0.0553 ± 0.031
GACAGCGA	0.0826 ± 0.074
GGATCACC	-0.0658 ± 0.0065
CTTAATTC	-0.0766 ± 0.029
GGTTATTA	-0.187 ± 0.12
ATCACCCA	0.182 ± 0.0029
GTACGACA	-0.0615 ± 0.04
GGAATCCC	-0.146 ± 0.02
ACCTATTG	0.0768 ± 0.0017
GCGGCTCC	0.0339 ± 0.052
AGCACCCG	0.257 ± 0.011
CCGTGGCA	-0.0826 ± 0.0072
CGCTTAGC	0.1 ± 0.007
ACGAATAT	-0.0222 ± 0.075
AGCTCTAT	-0.0588 ± 0.064
AGGTAAAC	0.0131 ± 0.015
CGTGCAAG	0.08 ± 0.0073
CATATCCG	-0.0533 ± 0.035
GAATCCAC	0.0252 ± 0.019
CAACGTGC	0.103 ± 0.022
ATATAGCG	0.0507 ± 0.04
CTCCGTCC	-0.296 ± 0.029
AGCACCAT	0.19238 ± 0.00011

Sequence	PBM E-score of 8-mer
CATAAACA	0.07997 ± 0.00035
ACAGGTCT	-0.0109 ± 0.0033
GTGGAAAC	0.146 ± 0.018
GAGTACAC	0.0418 ± 0.013
CTAGGTTA	-0.16 ± 0.08
CGTTTAGC	0.0935 ± 0.14
AAATTGAG	-0.153 ± 0.021
ATTAGCGG	0.0476 ± 0.1
AACCCTTG	-0.208 ± 0.01
ATCAGGCG	0.039 ± 0.021
ATAACCGC	0.0986 ± 0.023
AATGCACA	0.00737 ± 0.0075
AGCTAATA	-0.00766 ± 0.01
CATCGGAA	-0.192 ± 0.016
CGAATGCC	0.0266 ± 0.036
CCTCATCG	-0.121 ± 0.047
CTTTAGTC	-0.114 ± 0.057
ATGCCGCG	0.0933 ± 0.021
GAGGTAGA	-0.0623 ± 0.02
CTAGACTA	-0.265 ± 0.038
GCCAGTAC	-0.0641 ± 0.077
CTTAAACA	0.134 ± 0.011
CTAGGGGC	0.146 ± 0.069
GACTGGAC	-0.11 ± 0.051
ACTACTGG	-0.153 ± 0.029

Sequence	PBM E-score of 8-mer
ATCGAGGG	-0.013 ± 0.021
CTGTCAGC	0.224 ± 0.038
CGCAACCC	-0.0232 ± 0.042
AACACGGG	-0.00125 ± 0.0046
GGGTCATA	-0.263 ± 0.0055
ACAAATCC	0.105 ± 0.023
CCGTAAGC	-0.113 ± 0.041
GTGGTCGA	0.0638 ± 0.032
AGACGCAC	-0.0631 ± 0.048
CCTCGCCA	0.148 ± 0.055
GGCGGCTA	-0.0524 ± 0.05
AGATCCTA	-0.201 ± 0.035
ACCCACGC	0.235 ± 0.037
CACCTTGA	0.367 ± 0.042
TTCGAGAA	0.0615 ± 0.024
CCACGTGG	0.0324 ± 0.043
GACTGGCC	0.0473 ± 0.08
CCACGTGC	0.114 ± 0.074
GCATCAAA	-0.16 ± 0.047
AAGACTAC	-0.0837 ± 0.0047
ATAGACTA	-0.105 ± 0.01
CCCACTAC	0.062 ± 0.0031
CATCTACA	-0.0335 ± 0.0034
AAGCAAGT	-0.0576 ± 0.043
ATCCAAGC	-0.0883 ± 0.097

Sequence	PBM E-score of 8-mer
CCGAGTCG	-0.0855 ± 0.013
TAACGGCA	-0.0181 ± 0.024
AACCTGCG	0.0936 ± 0.029
ACTCTTAA	-0.202 ± 0.085
ACTCATGC	0.063 ± 0.0068
ACACTCAC	0.366 ± 0.004
CGCTTTCC	-0.118 ± 0.054
CAGCCAAA	0.0186 ± 0.017
AAGTGGTG	0.205 ± 0.007
GCCGAGAA	0.115 ± 0.032
AGTTTCTA	-0.159 ± 0.03
CTTTCAGC	-0.162 ± 0.032
TCGATTAA	-0.058 ± 0.051
AGTGCGCC	-0.0205 ± 0.057
CGGCTATA	-0.0419 ± 0.069
AACCCCTT	-0.0308 ± 0.031
CTCCAAAA	-0.149 ± 0.074
CAAGCACC	0.0313 ± 0.011
CTTACCTA	-0.163 ± 0.054
GACTCGAC	-0.0494 ± 0.0017
ACCACACG	0.26 ± 0.039
GCCTGGTA	-0.00591 ± 0.042
CATGGAGG	-0.135 ± 0.027
CTAGCGCC	0.265 ± 0.021
GGTCTAAC	-0.0676 ± 0.032

Sequence	PBM E-score of 8-mer
AAGTGTGC	0.3891 ± 0.00091
CACTACCA	0.0725 ± 0.033
GCTGTTAC	0.0324 ± 0.031
AACCAACT	-0.171 ± 0.062
GTAGAGAC	-0.094 ± 0.029
ATTTGGTC	-0.107 ± 0.054
ACATAACC	0.03482 ± 0.00013
ACGCATCC	0.0665 ± 0.015
CCTTTTGA	0.0614 ± 0.015
CAGCGTGG	-0.111 ± 0.012
CACGGCTC	0.0832 ± 0.056
GCGTACAA	-0.0172 ± 0.059
ACTATGCG	0.123 ± 0.013
CTCGCATC	0.129 ± 0.052
AGCATGAA	0.0301 ± 0.0045
ATGACCTC	0.00034 ± 0.019
AATGGTCT	-0.0457 ± 0.068
ACTCAGCG	-0.0659 ± 0.13
GGGCAAGA	-0.184 ± 0.08
GATTAGAA	-0.143 ± 0.065
CTTCAGAC	-0.143 ± 0.032
CTATGTTA	-0.0604 ± 0.011
CCGTTTAC	0.108 ± 0.083
CATGTACA	-0.162 ± 0.012
AGGGGAAA	-0.213 ± 0.03

Sequence	PBM E-score of 8-mer
AACTGCGC	-0.0427 ± 0.13
CCGTGACG	0.201 ± 0.0074
AATTGGCG	0.158 ± 0.0053
GTAGCCAC	-0.0261 ± 0.014
GATGATGA	-0.0188 ± 0.039
AAGATTTG	-0.178 ± 0.04
CAACGTCC	-0.0399 ± 0.046
AAGATTGT	0.18 ± 0.063
ATTACTCC	-0.0237 ± 0.073
GAGTAGGA	-0.17 ± 0.034
CAACTAGA	-0.151 ± 0.086
AAGATATC	-0.00832 ± 0.034
CTATTTGC	-0.0356 ± 0.021
CCTCGTTA	-0.0711 ± 0.018
GCGGCTTA	-0.0848 ± 0.1
GTCAAATA	0.0335 ± 0.0093
CTTATATA	0.0515 ± 0.018
CGCACTTC	0.356 ± 0.02
AAATTACA	0.0963 ± 0.048
